Screen size: about 150,000 compounds; about 180 (0.12%) were called active. Inconclusive results, whose numbers are uncertain, are shown with a selection of clear calls. The call rests on the fitted dose curve; in most records, active means well fitted cell-killing curve with a large enough effect; inconclusive means small, poorly fitted or top-dose-only effect, or effect the other way; inactive means flat fitted curve, though single readings scatter. Potencies of inconclusive entries are doubtful fits and often do not repeat.
Assay: GF-AFC viability counterscreen for inhibitors of alpha-synuclein gene (SNCA) expression; further: nearly all actives have a fitted effect of over 30% in size;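 on activity change, negative = cytotoxicity: 0% = DMSO-treated cells and -100% = medium-only wells without cells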
Details: HEK-293-SNCA-luc viability, GF-AFC fluorescence, 24 h; activity change, negative = cytotoxicity: at 57.1 µM (top of the series) unless noted
Summary of the method: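 Cytotoxicity counterscreen: after 24 h compound treatment of genome-edited SNCA-luciferase HEK-293 cells, live-cell protease substrate GF-AFC read by fluorescence after 30 min; activity scaled between DMSO (0%) and medium-only (-100%), curves Hill-fitted.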
Potency means the concentration at half of the fitted maximal effect; tags describe the fitted curve by direction and shape.

Compound	Potency	activity change, negative = cytotoxicity
COc1ccc(C)cc1NC(=O)CN1C(=O)COc2ccc(S(=O)(=O)NC3CCCC3)cc21	inconclusive: 14.1 µM [cytotoxic, partial curve, poor fit]	
Cc1ccc(C)c(NC(=O)CSc2cn(CC(=O)N3CCCCC3)c3ccccc23)c1	inconclusive: 28.2 µM [cytotoxic, single point]	
CCCCNC(=O)Cc1csc2nc(C)c(-c3cc(C)n(-c4cccc(C)c4C)n3)c(=O)n12	inconclusive: 20 µM [cytotoxic, single point]	
COc1ccc(NC(=O)CCCc2nnc3n(C(C)C)c(=O)c4sccc4n23)cc1Cl	inconclusive: 20 µM [cytotoxic, partial curve, poor fit]	
CC1=C(C(=O)NCc2cccc(Cl)c2)C2(CCCCCC2)OC1=O	inconclusive: 50.1 µM [rising, partial curve, poor fit]	
COc1cc(C(=O)Nc2ccc(-c3nc4cc(C)c(C)cc4o3)cc2)cc(OC)c1OC	inconclusive: 12.6 µM [cytotoxic, partial curve, poor fit]	
COc1ccc(C2Cn3nnc(C(=O)Nc4cc(C)ccc4F)c3CO2)cc1 (stereo not drawn)		inactive: -8.17%
COc1ccccc1C(=O)Nc1cc(C2CC2)nn1-c1ccccc1		inactive: -1.8% [at 87.6 µM]
CC(C)Oc1ccc(C(=O)N2CCC(c3nc4ccccc4s3)CC2)cc1	inconclusive: 25.1 µM [cytotoxic, partial curve, poor fit]	
Cc1nc([C@@H]2CN(C(=O)c3cc(C4CC4)[nH]n3)C[C@H]2C(N)=O)n[nH]1		inconclusive: 19.3%
CC1(NC(=O)C2CC2)CN(Cc2nc(-c3ccc(Oc4ccccc4)cc3)cs2)C1		inactive: -23% [at 87.6 µM]
Cc1ccccc1NC(=O)c1cnc2c(c1)N(C(=O)CCc1ccccc1)CCC2		inactive: -3.47% [at 87.6 µM]
C#CC[C@H](c1nc2cc(Cl)ccc2c(=O)n1Nc1ccccc1)N(CCCN)C(=O)c1cccc(Cl)c1F	inconclusive: 13.4 µM [cytotoxic, partial curve, poor fit]	
O=C(Cn1ccn2nc(-c3ccccc3)c(CO)c2c1=O)NCCc1ccccc1		inactive: -0.326%
CCN(CC)C(=O)Cn1cc(C(=O)N2CCN(c3nc4ccccc4s3)CC2)nn1	inconclusive: 4.47 µM [cytotoxic, single point]	
CC(=O)Nc1ccc(CN2CCC3(CC2)CC(c2cccnc2)=NO3)cc1	inactive	
COc1ccc(C(=O)N2CC(N(C)c3ccccc3C)C2)cc1	inconclusive: 11.2 µM [cytotoxic, partial curve]	
CSc1cccc(NC(=O)Cn2c(N3CCOCC3)nc(C)cc2=O)c1	inconclusive: 7.94 µM [cytotoxic, full curve, poor fit]	
